Some of the results follow. The list includes weakly bound sequences.

In article PMC12820563 one finds binding signal (RPM ratio (pull-down/input)) data, which are given here for 40 sequences.

In this assay the target is T1, MBP-FoxP3dN (UniProt Q99JB6).
T1 sequence: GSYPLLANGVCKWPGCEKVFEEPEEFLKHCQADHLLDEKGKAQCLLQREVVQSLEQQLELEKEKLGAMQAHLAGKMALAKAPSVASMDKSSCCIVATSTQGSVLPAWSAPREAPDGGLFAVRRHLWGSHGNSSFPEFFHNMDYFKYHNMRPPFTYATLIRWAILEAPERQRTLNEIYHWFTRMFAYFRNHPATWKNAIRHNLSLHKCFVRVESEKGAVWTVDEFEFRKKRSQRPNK
The assay can be described thus: PD-seq (MBP pull-down with sequencing). As to conditions: 20 mM Tris-HCl pH 7.5, 100 mM NaCl, 1.5 mM MgCl2, 0.4 uM protein, 0.1 uM dsDNA library, 30 min, room temperature, amylose pull-down; high values mean tight binding; double strand, one strand shown.
For the sequence “GATGATTGTTCTCCCAGCTGATGAATTATGTCTGTCGAGTAAACAAATTTTCCTAATCTTTCTGTTCAAGCGCCATCTAC”, the binding signal (RPM ratio (pull-down/input)) was 1.14.
As for “GATGATTGTTCTCCCAGCTGATGAATTAATATGATCGAGTAAACAAATTTTCCTAATCTTTCTGTTCAAGCGCCATCTAC”, the binding signal (RPM ratio (pull-down/input)) is 0.516.
As to “GATGATTGTTCTCCCAGCTGATGAATTGGATACTTCGAGTAAACAAATTTTCCTAATCTTTCTGTTCAAGCGCCATCTAC”, the binding signal (RPM ratio (pull-down/input)) came out at 0.546.
With “GATGATTGTTCTCCCAGCTGATGAATTATCATTGTCGAGTAAACAAATTTTCCTAATCTTTCTGTTCAAGCGCCATCTAC” the figure was 0.763; with “GATGATTGTTCTCCCAGCTGATGAATTTCATACTTCGAGTAAACAAATTTTCCTAATCTTTCTGTTCAAGCGCCATCTAC”, 0.392.
As to “GATGATTGTTCTCCCAGCTGATGAATTCCTCGGCTCGAGTAAACAAATTTTCCTAATCTTTCTGTTCAAGCGCCATCTAC”, the binding signal (RPM ratio (pull-down/input)) was 0.2.
With “GATGATTGTTCTCCCAGCTGATGAATTACACTGCTCGAGTAAACAAATTTTCCTAATCTTTCTGTTCAAGCGCCATCTAC” the figure was 0.531; with “GATGATTGTTCTCCCAGCTGATGAATTATAGGAATCGAGTAAACAAATTTTCCTAATCTTTCTGTTCAAGCGCCATCTAC”, 0.252; with “GATGATTGTTCTCCCAGCTGATGAATTGAGTCGCTCGAGTAAACAAATTTTCCTAATCTTTCTGTTCAAGCGCCATCTAC”, 0.434.
With “GATGATTGTTCTCCCAGCTGATGAATTGTGGCCCTCGAGTAAACAAATTTTCCTAATCTTTCTGTTCAAGCGCCATCTAC” the figure was 1.26.
As to “GATGATTGTTCTCCCAGCTGATGAATTACGTTGTTCGAGTAAACAAATTTTCCTAATCTTTCTGTTCAAGCGCCATCTAC”, the binding signal (RPM ratio (pull-down/input)) was 2.95.
Consider “GATGATTGTTCTCCCAGCTGATGAATTCCCGAATTCGAGTAAACAAATTTTCCTAATCTTTCTGTTCAAGCGCCATCTAC”, for which the binding signal (RPM ratio (pull-down/input)) came out at 0.594.
Next, “GATGATTGTTCTCCCAGCTGATGAATTACATGGTTCGAGTAAACAAATTTTCCTAATCTTTCTGTTCAAGCGCCATCTAC”: 0.673; “GATGATTGTTCTCCCAGCTGATGAATTAACTCAATCGAGTAAACAAATTTTCCTAATCTTTCTGTTCAAGCGCCATCTAC”: 0.243.
For “GATGATTGTTCTCCCAGCTGATGAATTTGAGCCGTCGAGTAAACAAATTTTCCTAATCTTTCTGTTCAAGCGCCATCTAC”, the binding signal (RPM ratio (pull-down/input)) was 0.386.
With “GATGATTGTTCTCCCAGCTGATGAATTCGTAAGATCGAGTAAACAAATTTTCCTAATCTTTCTGTTCAAGCGCCATCTAC”, the binding signal (RPM ratio (pull-down/input)) turned out to be 0.243.
Next, “GATGATTGTTCTCCCAGCTGATGAATTAACATCATCGAGTAAACAAATTTTCCTAATCTTTCTGTTCAAGCGCCATCTAC”: 0.823; “GATGATTGTTCTCCCAGCTGATGAATTTGAAAGCTCGAGTAAACAAATTTTCCTAATCTTTCTGTTCAAGCGCCATCTAC”: 0.254; “GATGATTGTTCTCCCAGCTGATGAATTCCGGGTATCGAGTAAACAAATTTTCCTAATCTTTCTGTTCAAGCGCCATCTAC”: 0.57.
As for “GATGATTGTTCTCCCAGCTGATGAATTAAAGCTTTCGAGTAAACAAATTTTCCTAATCTTTCTGTTCAAGCGCCATCTAC”, the binding signal (RPM ratio (pull-down/input)) was found to be 0.897.
Next, “GATGATTGTTCTCCCAGCTGATGAATTAGCCTTGTCGAGTAAACAAATTTTCCTAATCTTTCTGTTCAAGCGCCATCTAC”: 0.563; “GATGATTGTTCTCCCAGCTGATGAATTGAAGTGCTCGAGTAAACAAATTTTCCTAATCTTTCTGTTCAAGCGCCATCTAC”: 0.386.
With “GATGATTGTTCTCCCAGCTGATGAATTCCTTATTTCGAGTAAACAAATTTTCCTAATCTTTCTGTTCAAGCGCCATCTAC” the figure was 0.335; with “GATGATTGTTCTCCCAGCTGATGAATTCCGCCGATCGAGTAAACAAATTTTCCTAATCTTTCTGTTCAAGCGCCATCTAC”, 0.698.
With “GATGATTGTTCTCCCAGCTGATGAATTTGTTCTGTCGAGTAAACAAATTTTCCTAATCTTTCTGTTCAAGCGCCATCTAC”, the binding signal (RPM ratio (pull-down/input)) amounted to 2.14.
Consider “GATGATTGTTCTCCCAGCTGATGAATTACCCATGTCGAGTAAACAAATTTTCCTAATCTTTCTGTTCAAGCGCCATCTAC”, for which the binding signal (RPM ratio (pull-down/input)) is 0.294.
With “GATGATTGTTCTCCCAGCTGATGAATTATTAAGGTCGAGTAAACAAATTTTCCTAATCTTTCTGTTCAAGCGCCATCTAC” the figure was 0.284; with “GATGATTGTTCTCCCAGCTGATGAATTGGCCATTTCGAGTAAACAAATTTTCCTAATCTTTCTGTTCAAGCGCCATCTAC”, 0.956.
As for “GATGATTGTTCTCCCAGCTGATGAATTATTCCTTTCGAGTAAACAAATTTTCCTAATCTTTCTGTTCAAGCGCCATCTAC”, the binding signal (RPM ratio (pull-down/input)) amounted to 0.308.
On to “GATGATTGTTCTCCCAGCTGATGAATTGACGCCATCGAGTAAACAAATTTTCCTAATCTTTCTGTTCAAGCGCCATCTAC”, for which the binding signal (RPM ratio (pull-down/input)) is 2.09.
As to “GATGATTGTTCTCCCAGCTGATGAATTGAAAGTGTCGAGTAAACAAATTTTCCTAATCTTTCTGTTCAAGCGCCATCTAC”, the binding signal (RPM ratio (pull-down/input)) was determined as 0.3.
With “GATGATTGTTCTCCCAGCTGATGAATTTCCTATATCGAGTAAACAAATTTTCCTAATCTTTCTGTTCAAGCGCCATCTAC” the figure was 0.287; with “GATGATTGTTCTCCCAGCTGATGAATTAATTGAGTCGAGTAAACAAATTTTCCTAATCTTTCTGTTCAAGCGCCATCTAC”, 0.504; with “GATGATTGTTCTCCCAGCTGATGAATTCGAGAAATCGAGTAAACAAATTTTCCTAATCTTTCTGTTCAAGCGCCATCTAC”, 0.289.
Next, “GATGATTGTTCTCCCAGCTGATGAATTTGCAAATTCGAGTAAACAAATTTTCCTAATCTTTCTGTTCAAGCGCCATCTAC”: 0.496; “GATGATTGTTCTCCCAGCTGATGAATTTATGGGTTCGAGTAAACAAATTTTCCTAATCTTTCTGTTCAAGCGCCATCTAC”: 1.47; “GATGATTGTTCTCCCAGCTGATGAATTGCAGCAGTCGAGTAAACAAATTTTCCTAATCTTTCTGTTCAAGCGCCATCTAC”: 0.75.
Consider “GATGATTGTTCTCCCAGCTGATGAATTATAACGGTCGAGTAAACAAATTTTCCTAATCTTTCTGTTCAAGCGCCATCTAC”, for which the binding signal (RPM ratio (pull-down/input)) is 0.343.
As to “GATGATTGTTCTCCCAGCTGATGAATTAGGCAGTTCGAGTAAACAAATTTTCCTAATCTTTCTGTTCAAGCGCCATCTAC”, the binding signal (RPM ratio (pull-down/input)) came out at 0.85.
With “GATGATTGTTCTCCCAGCTGATGAATTAGTTCCTTCGAGTAAACAAATTTTCCTAATCTTTCTGTTCAAGCGCCATCTAC” the figure was 0.617.
